Assay results taken from ChEMBL document CHEMBL5606458, “ASAP - ZIKV NS2B-NS3 protease fluorescence single point” (2024).
The whole screen tested about 2,700 compounds, of which about 160 (5.9%) showed an effect of 50% or more. Some of the results follow.

Molecular target: Nonstructural protein 3 (Zika virus) (UniProt A0A024AXB9)
[1] = PRVABC59, Concentration 10.0 uM, Number of replicates 1.0
[2] = PRVABC59, Concentration 50.0 uM, Number of replicates 1.0
[3] = PRVABC59, Concentration 15.0 uM, Number of replicates 1.0

UniProt A0A024AXB9, sequence (A0A024AXB9 as listed by the source): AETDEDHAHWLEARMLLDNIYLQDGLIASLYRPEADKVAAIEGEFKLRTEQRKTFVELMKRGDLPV

## O=Cc1ccc(N2CCC(C(=O)NCc3cccc([N+](=O)[O-])c3)CC2)cc1
[1]
  inhibition: 25.2%

## O=Cc1ccc(N2CCC(C(=O)NCCCCN3CCOCC3)CC2)cc1
[2]
  inhibition: 19.4%

## Cc1cc(NC(=O)c2cc(Cl)ccc2NS(=O)(=O)c2ccc(Oc3ccccc3Cl)cc2)ncc1I
[3]
  inhibition: 24.9%

## O=S(=O)(Nc1ccccc1)c1ccc(Oc2ccccc2Cl)cc1
PRVABC59, Concentration 49.5 uM, Number of replicates 2.0, Standard deviation 2.4375488222864568 %
  inhibition: 4.97%
PRVABC59, Concentration 99.01 uM, Number of replicates 2.0, Standard deviation 2.5594260442371675 %
  inhibition: 6.09%
PRVABC59, Concentration 198.0 uM, Number of replicates 2.0, Standard deviation 3.6345597809704175 %
  inhibition: 7.77%

## O=Cc1ccc(N2CCC(C(=O)Nc3ccc(Cl)nc3Cl)CC2)cc1
[2]
  inhibition: 20.5%

## O=Cc1ccc(N2CCC(C(=O)Nc3ccc(I)cc3)CC2)cc1
[2]
  inhibition: 20.3%

## COc1cc(Cl)nc(NC(=O)C2CCN(c3ccc(C=O)cc3)CC2)n1
[2]
  inhibition: 26.4%

## Cc1cc(CO)c2cccc(Cc3ccccc3C(=O)N(c3ncccn3)S(=O)(=O)c3ccc(N)cc3)c2n1
PRVABC59, Concentration 49.95 uM, Number of replicates 2.0, Standard deviation 0.5295893128804832 %
  inhibition: 2.68%
PRVABC59, Concentration 99.9 uM, Number of replicates 2.0, Standard deviation 0.15206043463069627 %
  inhibition: 8.61%

## CCOc1ccc(CCNC(=O)c2cc(Cl)ccc2NS(=O)(=O)c2ccc(Oc3ccccc3Cl)cc2)cc1
[3]
  inhibition: 24.1%

## Cn1cc(NC(=O)c2ccccc2C(F)(F)F)c(-c2ccc3oc(=O)[nH]c3c2)n1
PRVABC59, Concentration 49.5 uM, Number of replicates 2.0, Standard deviation 0.7842352610803925 %
  inhibition: 1.48%
PRVABC59, Concentration 99.01 uM, Number of replicates 2.0, Standard deviation 0.1277079855611017 %
  inhibition: 3.29%
PRVABC59, Concentration 198.0 uM, Number of replicates 2.0, Standard deviation 1.2159242726595276 %
  inhibition: 4.84%

## O=C(NCc1c(F)cc(F)c(F)c1F)c1cc(Cl)ccc1NS(=O)(=O)c1ccc(Oc2ccccc2Cl)cc1
[3]
  inhibition: 38.5%

## CS(=O)(=O)c1ccc(O)c(NC(=O)c2cc(Cl)ccc2NS(=O)(=O)c2ccc(Oc3ccccc3Cl)cc2)c1
[3]
  inhibition: 32.3%

## O=Cc1ccc(N2CCC(C(=O)Nc3ccc(-c4ccccn4)cc3)CC2)cc1
[2]
  inhibition: 20.4%

## CCCc1nn(C)c(C(N)=O)c1NC(=O)C1CCN(c2ccc(C=O)cc2)CC1
[2]
  inhibition: 11%

## O=Cc1ccc(N2CCC(C(=O)Nc3cc(Cl)ccc3OC(F)(F)F)CC2)cc1
[2]
  inhibition: 24.5%

## CC(C)(CC(=O)N1CCCC1)NC(=O)C1CCN(c2ccc(C=O)cc2)CC1
[2]
  inhibition: 26.7%

## CCCCN(Cc1ccc(F)cc1)C(=O)c1cc(Cl)ccc1NS(=O)(=O)c1ccc(Oc2ccccc2Cl)cc1
[3]
  inhibition: 25.8%

## Cc1cc(CO)c2cccc(C[C@H](NC(=O)[C@H](N)CCO)C(=O)O)c2n1
PRVABC59, Concentration 49.95 uM, Number of replicates 2.0, Standard deviation 1.9119132209710834 %
  inhibition: -7.31%
PRVABC59, Concentration 99.9 uM, Number of replicates 2.0, Standard deviation 1.3599169575482686 %
  inhibition: -6.54%

## Cc1cc(N)c2c(Cl)ccc(Cl)c2n1
PRVABC59, Concentration 49.95 uM, Number of replicates 2.0, Standard deviation 14.266771188329304 %
  inhibition: -9.58%

## O=Cc1ccc(N2CCC(C(=O)N3CCCC[C@H]3C(=O)N3CCCC3)CC2)cc1
[2]
  inhibition: 21.1%

## Cc1cc(CO)c2cccc(Cc3cccc(NC(=O)c4nc(N)n[nH]4)c3)c2n1
PRVABC59, Concentration 49.95 uM, Number of replicates 2.0, Standard deviation 3.2981012364268594 %
  inhibition: -0.767%
PRVABC59, Concentration 99.9 uM, Number of replicates 2.0, Standard deviation 3.2421151330326254 %
  inhibition: 4.54%

## CNC(=O)c1cc2cc(Cl)ccc2n1S(=O)(=O)c1ccc(Oc2ccccc2Cl)cc1
PRVABC59, Concentration 49.5 uM, Number of replicates 2.0, Standard deviation 1.7155938749569153 %
  inhibition: 6.93%
PRVABC59, Concentration 99.01 uM, Number of replicates 2.0, Standard deviation 2.1715802918214897 %
  inhibition: 10.6%
PRVABC59, Concentration 198.0 uM, Number of replicates 2.0, Standard deviation 0.15575789335686 %
  inhibition: 14.1%

## CN(Cc1cc([N+](=O)[O-])ccc1Cl)C(=O)C1CCN(c2ccc(C=O)cc2)CC1
[2]
  inhibition: 26.6%

## O=C(NCCOc1ccc(F)cc1)c1cc(Cl)ccc1NS(=O)(=O)c1ccc(Oc2ccccc2Cl)cc1
[3]
  inhibition: 36.7%

## CC(C)(C)c1csc(NC(=O)C2CCN(c3ccc(C=O)cc3)CC2)n1
[2]
  inhibition: 24.2%

## O=C(Nc1nc2[nH]cnc2c(=O)[nH]1)c1cc(Cl)ccc1NS(=O)(=O)c1ccc(Oc2ccccc2Cl)cc1
[3]
  inhibition: 21.9%

## O=C(NCCCSc1ccccc1)c1cc(Cl)ccc1NS(=O)(=O)c1ccc(Oc2ccccc2Cl)cc1
[3]
  inhibition: 21.8%

## Cc1cc(F)cc(Br)c1NC(=O)C1CCN(c2ccc(C=O)cc2)CC1
[2]
  inhibition: 25.6%

## Cc1cc(CO)c2cccc(Cc3cccc(NC(=O)CNC4CC4)c3)c2n1
PRVABC59, Concentration 49.95 uM, Number of replicates 2.0, Standard deviation 2.20382385319093 %
  inhibition: -2.08%
PRVABC59, Concentration 99.9 uM, Number of replicates 2.0, Standard deviation 2.3107066172874657 %
  inhibition: 1.16%

## CCOCCN(CCOCC)C(=O)c1cc(Cl)ccc1NS(=O)(=O)c1ccc(Oc2ccccc2Cl)cc1
[3]
  inhibition: 18.3%

## Cc1cccc(N2CCN(C(=O)c3cc(Cl)ccc3NS(=O)(=O)c3ccc(Oc4ccccc4Cl)cc3)CC2)n1
[3]
  inhibition: 14%

## NCc1cccc(NC(=O)C2CN(C(=O)OCc3ccccc3)C2)c1
PRVABC59, Concentration 49.5 uM, Number of replicates 2.0, Standard deviation 0.7047125451631892 %
  inhibition: 1.12%
PRVABC59, Concentration 99.01 uM, Number of replicates 2.0, Standard deviation 1.0691153353532887 %
  inhibition: 3.88%
PRVABC59, Concentration 198.0 uM, Number of replicates 2.0, Standard deviation 0.2800776094724739 %
  inhibition: 10.1%

## COCCOCCOCCNC(=O)c1cc(Cl)ccc1NS(=O)(=O)c1ccc(Oc2ccccc2Cl)cc1
[3]
  inhibition: 2.49%

## COc1cc(Cc2ccnc(F)c2)nc(N2CCNCC2)n1
PRVABC59, Concentration 49.5 uM, Number of replicates 2.0, Standard deviation 2.56230025910808 %
  inhibition: 1.94%
PRVABC59, Concentration 99.01 uM, Number of replicates 2.0, Standard deviation 2.772155012837961 %
  inhibition: 4.24%
PRVABC59, Concentration 198.0 uM, Number of replicates 2.0, Standard deviation 0.028498687438702285 %
  inhibition: 5.13%

## Cc1cc(CO)c2cccc(NC(=O)COc3cccc(CN)c3)c2n1
PRVABC59, Concentration 49.95 uM, Number of replicates 2.0, Standard deviation 14.336839228160605 %
  inhibition: 5.84%
PRVABC59, Concentration 99.9 uM, Number of replicates 2.0, Standard deviation 17.14198241074065 %
  inhibition: 9.26%

## C#CCN(Cc1ccccc1Cl)C(=O)c1cc(Cl)ccc1NS(=O)(=O)c1ccc(Oc2ccccc2Cl)cc1
[3]
  inhibition: 37.5%

## C[C@@H](CC(C)(C)c1ccccc1)NC(=O)C1CCN(c2ccc(C=O)cc2)CC1
[2]
  inhibition: 25.7%

## O=Cc1ccc(N2CCC(C(=O)N(Cc3ccccc3)[C@H]3CCS(=O)(=O)C3)CC2)cc1
[2]
  inhibition: 24.8%

## O=Cc1ccc(N2CCC(C(=O)Nc3ccc(Br)c([N+](=O)[O-])c3)CC2)cc1
[2]
  inhibition: 37.7%

## O=Cc1ccc(N2CCC(C(=O)Nc3cc(Cl)c(Br)cn3)CC2)cc1
[2]
  inhibition: 21.4%

## O=C(c1cc(Cl)ccc1NS(=O)(=O)c1ccc(Oc2ccccc2Cl)cc1)N1CCC(N2CCc3ccccc3C2)CC1
[3]
  inhibition: 4.87%

## COc1cccc(CNC(=O)C2CCN(c3ccc(C=O)cc3)CC2)c1OC
[1]
  inhibition: 14.4%

## Cc1cc(CO)c2cccc(Cc3ccccc3C(=O)NCC(N)=O)c2n1
PRVABC59, Concentration 49.95 uM, Number of replicates 2.0, Standard deviation 0.4299636038947961 %
  inhibition: -6.99%
PRVABC59, Concentration 99.9 uM, Number of replicates 2.0, Standard deviation 1.2112392289790566 %
  inhibition: -0.356%

## O=C(Nc1ccc(Br)c(C(F)(F)F)c1)c1cc(Cl)ccc1NS(=O)(=O)c1ccc(Oc2ccccc2Cl)cc1
[3]
  inhibition: 29.1%
